Data reported in ChEMBL document CHEMBL1201862, “PubChem BioAssay data set” (2004).
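Assay format: 96-well plates, 48-hour exposure. GI50: concentration for 50% inhibition of growth.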 Activity calls are given as the source filed them. Cut-off read from the data, not from the text of the source: active = GI50 up to about 1.1 µM and inactive = higher.

Each compound was assayed on NCI-H322M (assay: NCI tumour cell line growth inhibition, 48 h).

Row | Compound | GI50
1 | COc1cc(C(=O)O)c([N+](=O)[O-])c(OC)c1OC | inactive: 49.3 µM
2 | O=C1C(c2c(O)[nH]c3ccc([N+](=O)[O-])cc23)=Nc2ccccc21 | inactive: > 100 µM
3 | COC(=O)/C(C#N)=C1\CCC(C(=O)OC)N1C (stereo not given) | inactive: > 100 µM
4 | COC(=O)C(Cc1ccccc1)NC(=O)C(CCC(=O)OCc1ccccc1)NC(=O)OC(C)(C)C (stereo not given) | inactive: > 100 µM
5 | C[C@H]1COC(c2ccccn2)=N1 | inactive: > 100 µM
6 | O=C(CCC(=O)Nc1ccc(Cl)cc1)CC(=O)c1ccc(F)cc1 | inactive: > 100 µM
7 | CC(=O)N1c2ccccc2[C@H]2CCc3c([nH]c4ccccc34)[C@H]21 | inactive: 10.9 µM
8 | Cc1cnoc1NS(=O)(=O)c1ccc(Nc2nnc(/C=C/c3c(O)ccc4ccccc34)c(=O)n2N)cc1 | inactive: 83.9 µM
9 | C=CC(C)(O)/C=C/C=C(\C)C(CC1OC1(C)C)OC(=O)/C(C)=C\C (stereo not given) | inactive: > 100 µM
10 | OC1(c2ccccc2)OC(C#Cc2ccccc2)(c2ccccc2)c2ccccc21 (stereo not given) | inactive: 1.91 µM
11 | COC(=O)Nc1nc2cc(NC(=O)c3cccs3)ccc2[nH]1 | inactive: 74.6 µM
12 | CN(/N=C\c1ccc2ccccc2c1)C1=NCCCCN1 | inactive: 19.3 µM
13 | O=c1c2ncn(COCCCl)c2n(-c2ccccc2)c(=S)n1-c1ccccc1 | inactive: > 100 µM
14 | CCCCc1c2c(nc3c1CC/C(=C\c1ccccc1)C3=O)CCCC2 | inactive: 15.8 µM
15 | CC(C)(C)OC(=O)NC(Cc1ccccc1)C(=O)OCN1C(=O)C2C3C=CC(C2C1=O)C1C2C(=O)N(COC(=O)C(Cc4ccccc4)NC(=O)OC(C)(C)C)C(=O)C2C31 (stereo not given) | inactive: 76.6 µM
16 | CCOC(CN(C)C(=O)Nc1ccc(Cl)c(Cl)c1)OCC | inactive: > 10 µM
17 | O=S1(=O)c2ccccc2C(=NO)c2ccccc21 | inactive: > 100 µM
18 | CC(=O)OC12C=CC(=O)N1c1ccccc1C(=O)O2 (stereo not given) | inactive: > 100 µM

Row | Compound | GI50
19 | Cc1cc(C)n(C(=O)CSc2nc3ccc(I)cc3c(=O)n2Cc2ccccc2)n1 | inactive: 38.1 µM
20 | CN(C)CCNC(=O)c1cccc2c1nc(-c1ccc(F)cc1)c1ccccc12 | inactive: 4.2 µM
21 | Oc1ccc2c(c1)-c1c(c3cc(O)ccc3n1CCN1CCOCC1)CC2 | inactive: 37.8 µM
22 | Cc1cc(-c2c(Br)cc(C(=O)O)n2C)on1 | inactive: > 100 µM
23 | CSCCC(NCc1c(O)ccc2ccc(=O)oc12)C(=O)O (stereo not given) | inactive: > 100 µM
24 | COc1ccc(-c2nc(N(C)C)c3ccccc3n2)cc1 | inactive: 6.41 µM
25 | CCOC(=O)c1nnsc1NC(=O)NCCCCCCn1c(=O)n(CCCCCCNC(=O)Nc2snnc2C(=O)OCC)c(=O)n(CCCCCCNC(=O)Nc2snnc2C(=O)OCC)c1=O | inactive: 43.4 µM
26 | CC(=O)CCCCCCCCCCCC[C@@H]1CC[C@H](C)[C@H](O)N1 | inactive: > 100 µM
27 | C/C1=C/C2OC(=O)C3(C)C2C(CC2(C)OC1=CC2=O)OC3(O)C(C)C (stereo not given) | inactive: 39.8 µM
28 | O=c1n(CCCN2CCOCC2)nc2n1-c1ccc3ccccc3c1SC2 | inactive: > 10 µM
29 | Cc1ccc(/C=N/NS(=O)(=O)c2ccccc2)cc1 | inactive: > 100 µM
30 | NC(Cc1ccccc1)C(=O)OCN1C(=O)C2C3C=CC(C2C1=O)C1C2C(=O)N(COC(=O)C(N)Cc4ccccc4)C(=O)C2C31 (stereo not given) | inactive: > 100 µM
31 | O=C(Nn1cnn2c(=O)c3ccccc3nc2c1=O)c1ccccc1 | inactive: > 100 µM
32 | COc1cc2c(cc1C)NC(=O)/C2=C/c1c(Cl)[nH]c2cc(C)c(OC)cc12 | inactive: 7.85 µM
33 | COC(=O)c1cc(C(=CCC[C@H]2CC[C@@]3(C)C(CCC4C3CC[C@@]3(C)C4CC[C@@H]3C(C)CCCC(C)C)C2)c2cc(Cl)c(O)c(C(=O)OC)c2)cc(Cl)c1O (stereo not given in full) | inactive: > 10 µM
34 | COc1cc2c(cc1OCCCNC(=O)c1cc3ccccc3[nH]1)N=C[C@@H]1CCCN1C2=O | inactive: 1.2 µM
35 | Oc1ccc(/C=C/c2cc(O)cc3c2C(c2cc(O)cc(O)c2)C(c2ccc(O)c(O)c2)O3)cc1 (stereo not given) | inactive: 43.5 µM
